This passage reports binding results from PMC10912198.

Protein sequences, listed by entry. Tags and fused reporters are not part of them. Residues count along the entry.
UniProt Q9CXZ1, residues 43-175: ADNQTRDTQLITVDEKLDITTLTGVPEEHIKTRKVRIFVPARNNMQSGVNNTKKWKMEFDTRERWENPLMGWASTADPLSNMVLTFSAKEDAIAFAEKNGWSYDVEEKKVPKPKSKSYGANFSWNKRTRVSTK

First the molecules themselves.
B1: STOML2-HA fusion protein (wild type, full length) (protein, UniProt Q99JB2 29-353)
chain: SSGLPRNTVILFVPQQEAWVVERMGRFHRILEPGLNVLIPVLDRIRYVQSLKEIVINVPEQSAVTLDNVTLQIDGVLYLRIMDPYKASYGVEDPEYAVTQLAQTTMRSELGKLSLDKVFRERESLNANIVDAINQAADCWGIRCLRYEIKDIHVPPRVKESMQMQVEAERRKRATVLESEGTRESAINVAEGKKQAQILASEAEKAEQINQAAGEASAVLAKAKAKAEAIRILAGALTQHNGDAAASLTVAEQYVSAFSKLAKDSNTVLLPSNPSDVTSMVAQAMGVYGALTKAPVPGAQNSSQSRRDVQATDTSIEELGRVKLS
B2: STOML2 ΔHP (Δ29–78)-HA (protein, UniProt Q99JB2)
chain: LKEIVINVPEQSAVTLDNVTLQIDGVLYLRIMDPYKASYGVEDPEYAVTQLAQTTMRSELGKLSLDKVFRERESLNANIVDAINQAADCWGIRCLRYEIKDIHVPPRVKESMQMQVEAERRKRATVLESEGTRESAINVAEGKKQAQILASEAEKAEQINQAAGEASAVLAKAKAKAEAIRILAGALTQHNGDAAASLTVAEQYVSAFSKLAKDSNTVLLPSNPSDVTSMVAQAMGVYGALTKAPVPGAQNSSQSRRDVQATDTSIEELGRVKLS
B3: STOML2 Δ169–212-HA (protein, UniProt Q99JB2)
chain: SSGLPRNTVILFVPQQEAWVVERMGRFHRILEPGLNVLIPVLDRIRYVQSLKEIVINVPEQSAVTLDNVTLQIDGVLYLRIMDPYKASYGVEDPEYAVTQLAQTTMRSELGKLSLDKVFRERESLNANIVDAINQAADCWSAINVAEGKKQAQILASEAEKAEQINQAAGEASAVLAKAKAKAEAIRILAGALTQHNGDAAASLTVAEQYVSAFSKLAKDSNTVLLPSNPSDVTSMVAQAMGVYGALTKAPVPGAQNSSQSRRDVQATDTSIEELGRVKLS
B4: STOML2 ΔCTD (Δ213–353)-HA (domain or fragment, UniProt Q99JB2 29-212)
chain: SSGLPRNTVILFVPQQEAWVVERMGRFHRILEPGLNVLIPVLDRIRYVQSLKEIVINVPEQSAVTLDNVTLQIDGVLYLRIMDPYKASYGVEDPEYAVTQLAQTTMRSELGKLSLDKVFRERESLNANIVDAINQAADCWGIRCLRYEIKDIHVPPRVKESMQMQVEAERRKRATVLESEGTRE
B5: STOML2 Δ70–109-HA (protein, UniProt Q99JB2)
chain: SSGLPRNTVILFVPQQEAWVVERMGRFHRILEPGLNVLIPVMDPYKASYGVEDPEYAVTQLAQTTMRSELGKLSLDKVFRERESLNANIVDAINQAADCWGIRCLRYEIKDIHVPPRVKESMQMQVEAERRKRATVLESEGTRESAINVAEGKKQAQILASEAEKAEQINQAAGEASAVLAKAKAKAEAIRILAGALTQHNGDAAASLTVAEQYVSAFSKLAKDSNTVLLPSNPSDVTSMVAQAMGVYGALTKAPVPGAQNSSQSRRDVQATDTSIEELGRVKLS
B6: STOML2 ΔSTOM (Δ79–212)-HA (protein, UniProt Q99JB2)
chain: SSGLPRNTVILFVPQQEAWVVERMGRFHRILEPGLNVLIPVLDRIRYVQSSAINVAEGKKQAQILASEAEKAEQINQAAGEASAVLAKAKAKAEAIRILAGALTQHNGDAAASLTVAEQYVSAFSKLAKDSNTVLLPSNPSDVTSMVAQAMGVYGALTKAPVPGAQNSSQSRRDVQATDTSIEELGRVKLS
B7: STOML2 Δ110–168-HA (protein, UniProt Q99JB2)
chain: SSGLPRNTVILFVPQQEAWVVERMGRFHRILEPGLNVLIPVLDRIRYVQSLKEIVINVPEQSAVTLDNVTLQIDGVLYLRIGIRCLRYEIKDIHVPPRVKESMQMQVEAERRKRATVLESEGTRESAINVAEGKKQAQILASEAEKAEQINQAAGEASAVLAKAKAKAEAIRILAGALTQHNGDAAASLTVAEQYVSAFSKLAKDSNTVLLPSNPSDVTSMVAQAMGVYGALTKAPVPGAQNSSQSRRDVQATDTSIEELGRVKLS

Results are given in words; binding and its absence hold for the method and conditions named. In cells and extracts the contact can be indirect. Some binding calls cover weakened binding; strength is not graded here. Sequences can lack the tags named with a protein.

The target in one assay is GST-NDUFS4 fusion protein (UniProt Q9CXZ1). In words: pull-down; 2 ug GST or GST-NDUFS4 immobilized on Glutathione Sepharose 4B beads, incubated 3 h at 4 C with cleared lysate (TNTE buffer) of HEK293T cells expressing STOML2-HA or deletion mutants; immunoblot; only the target purified. (A western blot detects proteins with antibodies after separation by electrophoresis.)
With B1, the binding result is recorded as “binds”. B2: the binding entry is listed as “binds”. With B3, the binding result is “no binding”. Turning to B4, the binding entry is “binds”.

B5: the binding entry was “no binding”. In the case of B6, the binding result is given as “no binding”. As to B7, the binding entry is “binds”.

A further assay has as its target NDUFS4-FLAG (mouse) (UniProt Q9CXZ1). As to the kind of experiment: co-IP; HEK293T transiently transfected, crosslinked with 1 mM DSP 30 min, RIPA lysis diluted with NETN; Anti-FLAG M2 magnetic beads overnight at 4 C, 3X FLAG peptide elution, immunoblot; IgG as negative control.
For the molecule B4, the binding entry is given as “binds”.
